# Laboratory results reported in paper PMC4336329 (PLoS ONE, 2015).
# Out of some 310,000 compounds screened, about 2,200 (0.71%) showed an effect of 50% or more. Effects have a minus sign here. The list shows a part of the results.
# Molecular target: human ether-à-go-go-related gene (hERG) potassium channel (human, UniProt Q12809)
# Assay: primary screen, population patch clamp on CHO cells stably expressing hERG
# human ether-à-go-go-related gene (hERG) potassium channel, sequence (Q12809 whole entry, looked up): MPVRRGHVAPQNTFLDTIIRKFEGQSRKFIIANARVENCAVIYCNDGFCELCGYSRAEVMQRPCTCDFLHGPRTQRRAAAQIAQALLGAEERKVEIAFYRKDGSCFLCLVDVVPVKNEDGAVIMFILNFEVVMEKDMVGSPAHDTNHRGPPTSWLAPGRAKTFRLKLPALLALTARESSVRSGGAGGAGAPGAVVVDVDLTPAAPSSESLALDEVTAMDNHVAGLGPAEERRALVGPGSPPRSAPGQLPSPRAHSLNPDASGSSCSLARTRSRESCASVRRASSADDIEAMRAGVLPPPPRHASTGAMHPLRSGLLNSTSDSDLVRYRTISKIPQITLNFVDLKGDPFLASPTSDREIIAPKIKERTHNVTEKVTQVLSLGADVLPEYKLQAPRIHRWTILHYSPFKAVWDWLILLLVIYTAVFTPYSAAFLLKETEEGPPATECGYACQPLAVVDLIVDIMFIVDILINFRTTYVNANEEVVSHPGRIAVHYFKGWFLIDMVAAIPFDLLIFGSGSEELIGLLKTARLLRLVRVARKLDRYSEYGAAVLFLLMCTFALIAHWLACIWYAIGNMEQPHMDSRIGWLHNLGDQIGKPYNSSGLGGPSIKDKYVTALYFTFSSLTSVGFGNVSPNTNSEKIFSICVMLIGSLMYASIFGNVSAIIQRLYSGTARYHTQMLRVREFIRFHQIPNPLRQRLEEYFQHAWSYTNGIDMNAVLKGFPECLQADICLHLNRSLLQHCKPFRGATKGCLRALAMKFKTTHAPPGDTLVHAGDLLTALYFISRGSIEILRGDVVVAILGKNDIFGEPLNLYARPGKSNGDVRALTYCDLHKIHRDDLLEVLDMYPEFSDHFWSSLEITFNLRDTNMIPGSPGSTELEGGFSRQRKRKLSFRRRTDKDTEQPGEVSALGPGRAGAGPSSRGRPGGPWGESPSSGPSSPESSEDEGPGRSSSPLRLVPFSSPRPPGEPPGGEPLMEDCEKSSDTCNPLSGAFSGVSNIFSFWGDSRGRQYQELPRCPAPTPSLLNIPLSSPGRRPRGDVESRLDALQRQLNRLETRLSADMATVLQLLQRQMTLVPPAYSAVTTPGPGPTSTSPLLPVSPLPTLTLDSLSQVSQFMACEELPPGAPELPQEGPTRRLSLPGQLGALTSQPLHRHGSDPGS
row,Structure (SMILES),"hERG current change (%, negative = inhibition) at 1uM [%]"
1,Cc1cc(C)c(C(=O)N2CCCC(Nc3ccc(F)cc3)C2)o1 (stereo not drawn),8.9
2,C=CCOc1cccc(C2c3c(oc4ccccc4c3=O)C(=O)N2c2ccccn2)c1 (stereo not drawn),4.17
3,O=C(CNS(=O)(=O)c1cccc2nsnc12)NCCc1ccccc1,17.3
4,CN(C)C(CNC(=O)c1ccc(NS(=O)(=O)c2ccc(F)c(F)c2)cc1)c1ccccc1 (stereo not drawn),8.93
5,O=C(CSc1nnc(-c2ccco2)n1-c1ccccc1)NCC1CCCO1 (stereo not drawn),8.96
6,COc1ccc(/C=C/C(=O)NCC(=O)N/N=C(\C)Cc2ccccc2)cc1,13
7,Cc1cccc(OCC(=O)NCC(C)(C)N2CCOCC2)c1,7.14
8,COc1cc(CNCCN2CCOCC2)ccc1OCc1ccc(Cl)cc1.Cl,-16.2
9,COC(=O)Cn1c(C(F)(F)F)nc2ccccc21,17
10,COc1cccc(NC(=O)CN(C)S(=O)(=O)c2ccc3c(c2)n(C)c(=O)c(=O)n3C)c1,6.85
11,O=C(c1ccc(Br)o1)N1N=C(c2ccc(Cl)cc2)CC1c1ccco1 (stereo not drawn),10
12,CC(=O)N1CCN(C(=O)CSc2cc(C)c(Br)cc2C)CC1,13.1
13,CCN(Cc1ccncc1)Cc1ccc(OC)c(OC)c1.O=C(O)C(=O)O,12.9
14,O=C(O)c1ccc(COc2ccccc2/C=C2\NC(=O)N(Cc3ccccc3)C2=O)cc1,8.41
15,Cc1cc2nc(C)n(CCCNC(=O)Nc3ccc(C#N)cc3)c2cc1C,-18.9
16,O=C(COc1ccc(S(=O)(=O)N2CCCC2)cc1Cl)NCc1ccc2c(c1)OCO2,-2.61
17,C/C(=N\Nc1cc(-c2ccccc2)nc(-c2ccccc2)n1)c1ccc(O)c(C)c1,4.39
18,C=CCn1cn[nH]c1=S,4.74
19,CCOC(=O)C1=C(O)/C(=C\c2cccc(OC)c2)N=C1C,9.88
20,O=C(OCC(=O)C12CC3CC(CC(C3)C1)C2)c1cccnc1Cl,16.6
21,COc1ccc(C(=O)Nc2ccc3ccccc3c2)c(OC)c1,16.4
22,Cc1nc(N)c(Cc2ccc(Cl)cc2Cl)c(N)n1,13.3
23,CC12CCC(=O)N1C(C(=O)Nc1cc(S(=O)(=O)N3CCCCCC3)ccc1OCC(F)(F)F)CS2 (stereo not drawn),-6.57

row,Structure (SMILES),"hERG current change (%, negative = inhibition) at 1uM [%]"
1,CCN(CC)C(=O)CSc1nc(-c2ccc(C)cc2)nc2c1COC(C)(C)C2,4.01
2,COc1ccc(Cl)cc1NC(=O)CSc1nnc(Cn2c(=O)sc3ccccc32)n1C,-18.7
3,CCc1ccccc1NC(=O)c1ccc(-n2c(C)ccc2C)cc1,-2.49
4,O=C(OCC(=O)N1CCc2ccccc21)C1=COCCO1,8.87
5,Cc1ccc(Cl)cc1N1CCN(C(=O)CCCn2c(=O)c3cccn3c3cccnc32)CC1,2.42
6,O=C(COc1ccccc1-c1ccccc1)NNC(=O)NC1CCCCC1,2.67
7,COc1ccc(C(=O)CN2CCOCC2)cc1F.Cl,14.8
8,O=C(CCNC(=O)C1CCN(S(=O)(=O)c2ccc(F)cc2)CC1)Nc1ccccc1,2.32
9,COc1ccc(C)cc1NC(=O)NNC(=O)C(C)Oc1ccc(F)cc1Cl (stereo not drawn),-3.61
10,Cc1ccc2nc(CSc3nnc(Nc4ccccc4C)s3)cc(=O)n2c1,9.23
11,COc1ccc(C(=O)OCC(=O)Nc2c(C)n(C)n(-c3ccccc3)c2=O)cc1OC,15.4
12,CCCCn1c(SCC(=O)Nc2cc(NC(=O)c3ccco3)ccc2C)nc2ccccc2c1=O,-8.07
13,N#Cc1ccccc1OCC(=O)N1CCN(S(=O)(=O)c2ccc(Cl)cc2)CC1,-1.4
14,Cc1nc2ccccc2n1C(=O)N(C)C,22.7
15,Cn1c(-c2ccc(Cl)cc2)cnc1N,17
16,Cc1onc(-c2ccccc2Cl)c1C(=O)N1CCN(c2ncccn2)CC1,9.94
17,COc1cc(Br)cc2cc(C(=O)N3CCOCC3)c(=O)oc12,11.2
18,O=C(CCN1CCN(Cc2ccccc2)CC1)Nc1ccc(OCc2ccccc2)cc1,-6.62
19,COc1ccc(-c2cc3ncccc3cn2)cc1,12.7
20,COc1ccc(C(NC(C)=O)c2ccc3cccnc3c2O)c(OC)c1 (stereo not drawn),6.27
21,CCc1c(C)nc2c(-c3ccccc3)c(-c3ccccc3)[nH]n2c1=O,14.3
22,O=C(NC1CCc2ccccc21)c1cc(COc2c(F)cccc2F)on1 (stereo not drawn),11.3
23,Br.Nc1nc2c(s1)CCc1ccccc1-2,13.3

row,Structure (SMILES),"hERG current change (%, negative = inhibition) at 1uM [%]"
1,O=C(NCCCNC(=O)c1ccco1)c1ccc(F)cc1,9.67
2,CC(C)(C)c1ccc(-c2noc(CNC(=O)c3ccco3)n2)cc1,9.73
3,O=C(Nc1ncn[nH]1)c1ccc(Cl)c(S(=O)(=O)Nc2ccc(Cl)cc2)c1,9.48
4,COc1ccc(/C=C/C(=O)NC(=S)Nc2ccccc2)cc1OC,11.7
5,CC(=O)c1cc(-c2ccccc2)n(CCC(=O)NC2CCCCC2)c1C,7.83
6,Cc1ccc(C(=O)OCC(=O)Nc2ccc(S(N)(=O)=O)cc2)c(O)c1,7.79
7,Oc1ccc(-c2[nH]ncc2-c2nc3ccccc3s2)c(O)c1,11.2
8,CCOC(=O)CCC(=O)N(CCN(C(=O)CCC(=O)OCC)c1ccccc1)c1ccccc1,8.84
9,CCC1=[N+](CC(=O)c2ccc(C)cc2)CCn2c(C)ccc21.[Br-],6.4
10,NS(=O)(=O)c1cccc(NC(=O)COC(=O)C2CCCCC2)c1,12.1
11,O=C(Cc1c(F)cccc1Cl)Nc1ccccc1-c1ccccc1,4.56
12,COc1ccc(Cl)cc1-c1n[nH]c(=S)n1C1CCCCC1,12
13,CCCC(C)C(=O)Nc1ccc2c(c1)OCCO2 (stereo not drawn),6.88
14,O=C(O)c1[nH]c(=O)[nH]c(=O)c1F,15.1
15,CC(=O)c1cccc(Oc2ncccn2)c1,17.2
16,Cc1ccc(-n2ncc3c(NCC4CCCO4)ncnc32)c(C)c1 (stereo not drawn),10
17,COc1cccc(-c2nc3cc(C)ccc3o2)c1,14.8
18,O=C(/C=C/c1cccs1)NC(=S)Nc1ccc(C(=O)O)cc1,9.2
19,CCc1ccc(C(c2ccc(CC)cc2)C(Cl)Cl)cc1,15.9
20,Cc1ccccc1-c1nnc(SCC(=O)NCC2CCCO2)o1 (stereo not drawn),10.1
21,CCCC(=O)N1CCc2cc(OC)c(OC)cc2C1c1cc2cc3c(cc2[nH]c1=O)OCO3 (stereo not drawn),8.02
22,O=C(CC1C(=O)NCCN1Cc1c(F)cccc1Cl)NCc1ccccc1 (stereo not drawn),13
23,O=C(O)c1ccccc1C(=O)OCCc1cc2ccccc2c(=O)o1,11.8

row,Structure (SMILES),"hERG current change (%, negative = inhibition) at 1uM [%]"
1,O=C(NCc1ccccc1)N1CCN(c2ccccc2F)CC1,4.57
2,COc1ccc(OC)c(S(=O)(=O)N2CCC(C(=O)N3CCN(Cc4ccccc4)CC3)CC2)c1,4.62
3,Cc1ccc(-c2noc(CSc3nnnn3-c3ccccc3)n2)cc1,21.3
4,CC1CC[C@@]2(OC1)O[C@H]1CC3[C@@H]4C[C@@H](O)[C@@]5(O)C[C@@H](O)[C@H](O)C[C@]5(C)[C@H]4CC[C@]3(C)[C@H]1[C@@H]2C (stereo partly drawn),10.3
5,COc1ccc(-n2c(C)cc(C(=O)CN3CCC(C)CC3)c2C)cc1,-0.0538
6,OCCN1CCOCCN(CCO)CCN(CCO)CC1,7.33
7,CCOc1ccccc1NC(=O)CN(C)S(=O)(=O)c1cnc[nH]1,26.5
8,Clc1nc(-c2ccccc2)cc(-c2ccc(Br)cc2)n1,9.63
9,CCN(CCCNC(=O)COc1cc(=O)n(C)c2ccccc12)c1cccc(C)c1,-4.75
10,CN(CC(=O)Nc1ccccc1Br)C(=O)Cn1[nH]c(=O)c2ccccc2c1=O,11.3
11,COC(=O)Cn1nc(-c2ccccc2)c2ccccc21,6.61
12,CN1CCN(c2ccc(C(F)(F)F)cc2N)CC1,7.91
13,CCOC(=O)c1cccc(NC(=O)CN2C(=O)C3CC=CCC3C2=O)c1 (stereo not drawn),-1.8
14,COc1ccc2[nH]cc(CCCN3C(=O)c4ccccc4C3=O)c2c1,5.85
15,COc1ccccc1C(=O)NNC(=O)c1ccc2ccccc2c1,5.63
16,CCn1c(SCc2nc3ccccc3c(=O)[nH]2)nnc1-c1ccncc1,6.92
17,CC(=O)NC(CC(=O)N1CCN(C(C)=O)CC1)c1ccccc1 (stereo not drawn),21.2
18,CCCCn1c(=O)c(C(=O)Nc2ncccc2C)c(O)c2ccccc21,13.5
19,Cn1c(CN2CCCCC2)nc2cc(NC(=O)c3cccs3)ccc21,6.23
20,COc1ccc(NS(=O)(=O)c2cc(NC(=O)CNC(=O)c3ccc(C)s3)ccc2Cl)cc1,7.92
21,Cc1nnc(SCC(=O)c2c(N)n(C)c(=O)n(C)c2=O)n1Cc1ccccc1,9.36
